# Experimental data as given in a collection of fitness landscapes (doi:10.1038/s41467-024-54723-y).
# In all, about 18,000 sequences were measured (“TetR repression strength (sort-seq, GFP reporter)”: median about 0.23, highest 2% from about 0.68 on). This is one part of the list.
# Target: TetR (class B, Tn10) (UniProt P04483)
# Experiment: TetR repression strength (sort-seq, GFP reporter) (relative to tetO2 = 1); higher = stronger repression
# Settings: E. coli
# In short: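 E. coli SIG10-MAX carried a low-copy plasmid library with eight randomized operator positions between a constitutive promoter and sfGFP, with TetR constitutively expressed. Cells grew 5 h at 37 °C in LB with 50 µg/mL chloramphenicol, then 10^6 cells were FACS-sorted into 13 fluorescence bins, each Illumina-sequenced. Repression strength is the top bin index plus one minus the read-weighted mean bin, divided by the wild-type operator value. Three independent transformations; variants with ≥30 reads in all replicates and CV ≤0.5 were averaged.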
# Sequence of UniProt P04483 (P04483 whole entry): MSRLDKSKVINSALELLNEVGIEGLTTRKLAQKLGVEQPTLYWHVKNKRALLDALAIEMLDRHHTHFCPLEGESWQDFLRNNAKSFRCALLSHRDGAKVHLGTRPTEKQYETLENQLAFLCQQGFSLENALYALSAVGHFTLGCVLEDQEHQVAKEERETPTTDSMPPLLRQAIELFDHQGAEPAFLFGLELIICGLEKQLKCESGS
row,Sequence,TetR repression strength
1,TCCCGGGGAGTCATAGAGA,0.235
2,TCCCGCGTAGTATACGAGA,0.302
3,TCCCGGATAGTGCGAGAGA,0.325
4,TCCCAAGAAGTGTGAGAGA,0.265
5,TCCCTCGAAGTCGCCGAGA,0.26
6,TCCCGACAAGTAGGTGAGA,0
7,TCCCGAATAGTGCATGAGA,0.271
8,TCCCGTTGAGTAGTTGAGA,0.0625
9,TCCCATGCAGTTTTAGAGA,0.205
10,TCCCTGAAAGTGTTAGAGA,0.311
11,TCCCCAGGAGTTCATGAGA,0.248
12,TCCCTTCTAGTCCGAGAGA,0.336
13,TCCCTGGTAGTGTATGAGA,0.147
14,TCCCGCGGAGTTCGGGAGA,0.169
15,TCCCTCCTAGTTTCCGAGA,0.418
16,TCCCTTCTAGTTGCTGAGA,0.73
17,TCCCGGTGAGTATGCGAGA,1.15
18,TCCCAAGGAGTTTAAGAGA,0.357
19,TCCCAGAAAGTAGTCGAGA,0.214
20,TCCCCCTTAGTCTAAGAGA,0.228
21,TCCCGGCAAGTGTGCGAGA,0.191
22,TCCCGGGAAGTGGGCGAGA,0.164
23,TCCCAGAAAGTCAGTGAGA,0.298
24,TCCCGGGGAGTATCGGAGA,0.0558
25,TCCCAGCTAGTGTTGGAGA,0.197
26,TCCCAATGAGTAAAGGAGA,0.364

row,Sequence,TetR repression strength
1,TCCCCGATAGTGTGTGAGA,0.191
2,TCCCAGCCAGTCGCAGAGA,0.301
3,TCCCTAGGAGTCCGAGAGA,0.187
4,TCCCAGTTAGTTGTTGAGA,0.0531
5,TCCCGTTAAGTATTTGAGA,0.246
6,TCCCAGGTAGTACTCGAGA,0.107
7,TCCCGGGGAGTTGCGGAGA,0.0506
8,TCCCAATCAGTGGTGGAGA,0.139
9,TCCCAATCAGTGTCAGAGA,0.335
10,TCCCTCAGAGTGGAGGAGA,0.169
11,TCCCGGGCAGTATCGGAGA,0.128
12,TCCCCTTGAGTCTTAGAGA,0.359
13,TCCCTTGAAGTTAGTGAGA,0.184
14,TCCCGGCTAGTGTGTGAGA,0.238
15,TCCCTTGTAGTTGAGGAGA,0.251
16,TCCCCTTCAGTGGAGGAGA,0.65
17,TCCCTAGGAGTGGTAGAGA,0.278
18,TCCCTGTAAGTATGGGAGA,0.174
19,TCCCAATAAGTGCGGGAGA,0.0561
20,TCCCTTCGAGTGATGGAGA,0.307
21,TCCCGGCCAGTCGTGGAGA,0.0471
22,TCCCCTCCAGTCAGTGAGA,0.383
23,TCCCACTAAGTGAGGGAGA,0.391
24,TCCCTGGTAGTGTAAGAGA,0.217
25,TCCCCTCGAGTGTAGGAGA,0.305
26,TCCCAGAGAGTATACGAGA,0.205

row,Sequence,TetR repression strength
1,TCCCCGTGAGTAGTGGAGA,0.229
2,TCCCAGAGAGTGCCTGAGA,0.141
3,TCCCGACTAGTAGAAGAGA,0.316
4,TCCCTTATAGTCACAGAGA,0.268
5,TCCCGTGTAGTCTAGGAGA,0.272
6,TCCCTCTCAGTGCTTGAGA,0.661
7,TCCCCGATAGTCTGGGAGA,0.0204
8,TCCCGTAAAGTCGACGAGA,0.0349
9,TCCCTAATAGTCGGGGAGA,0.311
10,TCCCGATCAGTAGCAGAGA,0.207
11,TCCCGATCAGTTGGCGAGA,0.18
12,TCCCTACGAGTGACGGAGA,0.0954
13,TCCCCTGTAGTCGCGGAGA,0.253
14,TCCCTCCTAGTGGGCGAGA,0.0815
15,TCCCCCTTAGTTCGCGAGA,0.107
16,TCCCTTCAAGTTTGTGAGA,0.418
17,TCCCCTGCAGTGGGGGAGA,0.225
18,TCCCTAGGAGTACGAGAGA,1.01
19,TCCCTTCTAGTCCCGGAGA,0.415
20,TCCCGGTGAGTCCTTGAGA,0.126
21,TCCCTCTGAGTAAGCGAGA,0.318
22,TCCCCCGAAGTGTAAGAGA,0.207
23,TCCCTATAAGTGGCCGAGA,0.719
24,TCCCCACGAGTCGGTGAGA,0.207
25,TCCCCGATAGTCCTGGAGA,0.33
26,TCCCGGAAAGTATGTGAGA,0.0538

row,Sequence,TetR repression strength
1,TCCCTGTCAGTGTCCGAGA,0.348
2,TCCCGTCCAGTTTACGAGA,0.238
3,TCCCCCTCAGTACGTGAGA,0.397
4,TCCCGGAAAGTTGCCGAGA,0.494
5,TCCCCTGTAGTTGCCGAGA,0.264
6,TCCCGACAAGTGCTAGAGA,0.273
7,TCCCGTTCAGTGAACGAGA,0.617
8,TCCCGGTTAGTGTTTGAGA,0.601
9,TCCCCCGTAGTTGTAGAGA,0.27
10,TCCCGCCGAGTTGTCGAGA,0.393
11,TCCCAATCAGTGAGAGAGA,0.538
12,TCCCGCGTAGTATCGGAGA,0.187
13,TCCCATTCAGTACTGGAGA,0.335
14,TCCCGCGCAGTCCGGGAGA,0.0991
15,TCCCATGTAGTGACGGAGA,0.204
16,TCCCAACAAGTCCTTGAGA,0.307
17,TCCCTCAGAGTTTGCGAGA,0.244
18,TCCCCGTAAGTGGGCGAGA,0.127
19,TCCCTCATAGTGGGTGAGA,0.0921
20,TCCCAGCGAGTCCAGGAGA,0.27
21,TCCCGTAGAGTCATCGAGA,0.195
22,TCCCTATCAGTTACTGAGA,0.698
23,TCCCTCGGAGTTGGGGAGA,0.227
24,TCCCTGGAAGTGGGAGAGA,0.121
25,TCCCAATCAGTGCTAGAGA,0.458
26,TCCCATGTAGTACGGGAGA,0.142

row,Sequence,TetR repression strength
1,TCCCCGTAAGTGTGTGAGA,0.0801
2,TCCCGGTCAGTATGAGAGA,0.263
3,TCCCAGAGAGTGGCGGAGA,0.247
4,TCCCAAGTAGTGCATGAGA,0.242
5,TCCCCTCCAGTGAGAGAGA,0.305
6,TCCCGTCTAGTATCTGAGA,0.331
7,TCCCGAGCAGTCACGGAGA,0.0718
8,TCCCTGATAGTGGGCGAGA,0.183
9,TCCCCGTTAGTAAAGGAGA,0.256
10,TCCCGACAAGTTGGTGAGA,0.0502
11,TCCCAAACAGTTGCGGAGA,0.456
12,TCCCTTGGAGTGAGAGAGA,0.146
13,TCCCTGCTAGTGATAGAGA,0.638
14,TCCCGTGGAGTGCCGGAGA,0.408
15,TCCCTGCTAGTTTCGGAGA,0.136
16,TCCCCGGGAGTGTCGGAGA,0.239
17,TCCCTTGTAGTGTGGGAGA,0.314
18,TCCCATTGAGTAAGAGAGA,0.106
19,TCCCGCGAAGTTGCTGAGA,1.1
20,TCCCCATTAGTCGCTGAGA,0.638
21,TCCCTTGTAGTGCTTGAGA,0.225
22,TCCCTCGGAGTTTCCGAGA,0.202
23,TCCCTATCAGTCGCCGAGA,0.455
24,TCCCCGCAAGTGTTCGAGA,0.285
25,TCCCGGTTAGTCATAGAGA,0.546
26,TCCCTAGAAGTACCGGAGA,0.461

row,Sequence,TetR repression strength
1,TCCCAAGAAGTGGCAGAGA,0.317
2,TCCCTCGCAGTAAGGGAGA,0.229
3,TCCCACCGAGTGGGGGAGA,0.186
4,TCCCAAACAGTGAGGGAGA,0.344
5,TCCCTAGGAGTGTAGGAGA,0.14
6,TCCCATTAAGTGACGGAGA,0.116
7,TCCCATGCAGTGCACGAGA,0.17
8,TCCCGGCGAGTGGCTGAGA,0.16
9,TCCCGGCCAGTTAGTGAGA,0.436
10,TCCCTTTTAGTAGGGGAGA,0.322
11,TCCCTGTAAGTGAGCGAGA,0.265
12,TCCCCATAAGTAGCTGAGA,0.228
13,TCCCCAATAGTAAGGGAGA,0.521
14,TCCCCGAGAGTTCTTGAGA,0.291
15,TCCCGTGTAGTCGTAGAGA,0.217
16,TCCCCCGGAGTCCCTGAGA,0.471
17,TCCCTCCCAGTCGACGAGA,0.24
18,TCCCACCGAGTTCTCGAGA,0.27
19,TCCCGAGCAGTAGGGGAGA,0.155
20,TCCCTGTGAGTCACAGAGA,0.205
21,TCCCGGTGAGTGCAGGAGA,0.258
22,TCCCCGGGAGTTCTAGAGA,0.405
23,TCCCGCGAAGTTCGTGAGA,0
24,TCCCGTGGAGTGAGCGAGA,0.183
25,TCCCTGGGAGTCAGGGAGA,0.158
26,TCCCGTAAAGTTGGGGAGA,0.173

row,Sequence,TetR repression strength
1,TCCCTTTTAGTTGCGGAGA,0.539
2,TCCCCCAAAGTGGGCGAGA,0.104
3,TCCCGAACAGTCTCTGAGA,0.104
4,TCCCTCTGAGTGGTGGAGA,0.25
5,TCCCTAAAAGTTTGAGAGA,0.334
6,TCCCGAATAGTAGGCGAGA,0.304
7,TCCCCGCGAGTAGGAGAGA,0.405
8,TCCCGGCAAGTATCGGAGA,0.179
9,TCCCAAGGAGTCCACGAGA,0.201
10,TCCCGCAGAGTTACTGAGA,0.263
11,TCCCTGGTAGTCGGTGAGA,0.0854
12,TCCCGCTTAGTTTCCGAGA,0.334
13,TCCCTGCAAGTGAACGAGA,0.378
14,TCCCGATGAGTCGGCGAGA,0.28
15,TCCCCGAAAGTATAGGAGA,0.11
16,TCCCTCTTAGTTGGGGAGA,0.241
17,TCCCTGGCAGTTTGAGAGA,0.177
18,TCCCTTACAGTAGCGGAGA,0.0543
19,TCCCAATAAGTACTGGAGA,0.0595
20,TCCCAGATAGTGAGTGAGA,0.181
21,TCCCGCAAAGTTAATGAGA,0.335
22,TCCCTCACAGTAGGAGAGA,0.28
23,TCCCAAAAAGTCATCGAGA,0.189
24,TCCCCAGGAGTGGGAGAGA,0.241
25,TCCCGTTAAGTTCGGGAGA,0.0307
26,TCCCGCACAGTTGCGGAGA,0.173

row,Sequence,TetR repression strength
1,TCCCGGGGAGTGCGTGAGA,0.214
2,TCCCTCGCAGTGACGGAGA,0.418
3,TCCCGATCAGTAGGTGAGA,0.292
4,TCCCGGTAAGTCGCTGAGA,0.311
5,TCCCTTGAAGTCGCCGAGA,0.252
6,TCCCTGTGAGTCCACGAGA,0.622
7,TCCCTATGAGTAGTGGAGA,0.707
8,TCCCCGGAAGTGCTGGAGA,0.349
9,TCCCGGCAAGTTTGCGAGA,0.0126
10,TCCCATGAAGTGAAGGAGA,0.072
11,TCCCGGTAAGTAGATGAGA,0.243
12,TCCCTCGCAGTAGGGGAGA,0.22
13,TCCCGCACAGTAGGCGAGA,0.112
14,TCCCCTTAAGTCGGTGAGA,0.267
15,TCCCTTGGAGTTAGTGAGA,0.142
16,TCCCGGTAAGTGATTGAGA,0.133
17,TCCCTGAGAGTCCGAGAGA,0.416
18,TCCCGTAGAGTGATAGAGA,0.501
19,TCCCGAGTAGTATCAGAGA,0.302
20,TCCCAAGTAGTGAGGGAGA,0.152
21,TCCCTTGTAGTGGTCGAGA,0.265
22,TCCCCGTGAGTCGGTGAGA,0.261
